Results reported in PubChem BioAssay AID504845 (National Center for Advancing Translational Sciences (NCATS), 2011).
In all, about 390,000 compounds went through this assay and about 150 (0.038%) were called active. This list was built around the results that the source calls inconclusive (neither active nor inactive); the mix of calls is not that of the screen. Calls follow the shape of the dose curve; as a rule, active = well fitted inhibition curve with a large enough effect; inconclusive = small, poorly fitted or top-dose-only effect; inactive = no such curve, though single readings can be large or run the other way. A potency beside an inconclusive call is a rough fit, not a confirmed value.

Target: Regulator of G-protein signaling 4 (Homo sapiens) (UniProt P49798)
Assay: Inhibitors of Regulator of G Protein Signaling (RGS) 4: qHTS; also: nearly all actives have a fitted effect of over 75% in size
Conditions: Transcreener GDP fluorescence polarization, RGS4-accelerated GTP hydrolysis; series mostly up to 114 µM; activity change, negative = inhibition: at the top concentration
Excerpt: G-protein-coupled receptors (GPCRs) are well-established targets for drug discovery and development. Members of the "regulator of G-protein signaling" (RGS)-protein superfamily have recently emerged as critical modulators of specific GPCR signaling pathways. […] Combining specific RGS domain inhibitors with existing GPCR agonists should potentiate cellular responses and could also increase the specificity of action of existing therapeutics. Small molecule modulators of RGS domain activity should also have clinical utility in inhibiting or potentiating the actions of endogenous GPCR agonists. In particular, the diversity of RGS proteins with highly localized and dynamically regulated distributions in the human brain makes this family of proteins attractive targets for pharmacotherapy of central nervous system (CNS) disorders such as Parkinson's disease, schizophrenia, and anxiety.
This assay was used to screen the NIH Molecular Libraries Small Molecule Repository (MLSMR) in order to identify a small molecule that inhibits RGS4.
NIH Chemical Genomics Center [NCGC]
NIH Molecular Libraries Probe Centers Network [MLPCN]
Assay Submitter (PI): David Siderovski, University of North Carolina Chapel Hill (School of Medicine)
Two microliters of 500nM (2x working concentration) is dispensed into black medium-binding solid-bottom Kalypsys plates. Then with the Kalypsys pintool 23nl of control and compounds are transferred; the control compound is […] CCG-4986 (working concentration). After a 10 minute incubation at room temperature 2ul of antibody is added with the Kalypsys dispenser; (-)RGS4/Transcreener GDP solution in columns 3 and 4 which consisted of 10nM (2x working concentration) Alexa633, 20uM GTP, and 20 ug/ml GDP antibody and (+)RGS4/Transcreener GDP solution in columns 1,2, and 5 to 48 which consists of 900nM RGS4 (2x working concentration), 10nM Alexa633, 20 ug/ml GDP antibody. The plate is centrifuged at 1000 RPM for 15 seconds to remove any possible bubbles and then incubated for 5 minutes at ambient room temperature. An initial fluorescent polarization read (620 nm/688 nm) is performed on the Envision before the plate is incubated for 90 minutes at 30 deg C at a relative humidity of 80%. The plate is once more centrifuged at 1000 RPM for 15 seconds and another Envision fluorescent polarization (620 nm/688 nm) read is carried out.
% is scaled to controls: 0 for no effect and ±100 for the full control effect; potency is read from the fitted curve at half-maximal effect; tags tell the direction and shape of the fitted curve.

UniProt P49798, sequence (P49798 whole entry, looked up): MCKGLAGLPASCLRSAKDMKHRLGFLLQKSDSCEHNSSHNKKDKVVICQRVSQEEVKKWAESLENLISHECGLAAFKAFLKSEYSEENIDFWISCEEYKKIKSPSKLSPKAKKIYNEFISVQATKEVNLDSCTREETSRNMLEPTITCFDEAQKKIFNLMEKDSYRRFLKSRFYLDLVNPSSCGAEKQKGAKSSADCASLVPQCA

Question: Cc1cc[n+]2c3c(cccc13)CCC2 was tested. Which Potency did it give?
Answer: Its Potency is inconclusive: 50.1 µM [inhibitor, partial curve, poor fit].

Question: For O=C(O)/C(=C\c1ccc(-c2ccc(F)cc2)o1)c1ccccc1, which Potency is on record?
Answer: The Potency was inconclusive: 10 µM [inhibitor, full curve, poor fit].

Question: How did the Potency turn out when CC[n+]1c(/C=C/N(C)c2ccccc2)oc2ccc(Cl)cc21 was run?
Answer: The Potency was inconclusive: 50.1 µM [inhibitor, partial curve, poor fit].

Question: How did the Potency turn out when C[N+]1=C(/C=C/Nc2ccccc2Cl)C(C)(C)c2ccccc21 was run?
Answer: The Potency was inconclusive: 79.4 µM [inhibitor, partial curve, poor fit].

Question: CC(=O)c1cc(C#N)c(N(C)Cc2ccccc2)nc1C was tested. Which “activity change, negative = inhibition” value did it give?
Answer: Its value is inactive: 7.96%.

Question: How did the “activity change, negative = inhibition” value turn out when CCN(c1cccc(C)c1)S(=O)(=O)c1cn(CC(=O)OC)c2ccc([N+](=O)[O-])cc12 was run?
Answer: Its value is inactive: -8.59%.

Question: Which “activity change, negative = inhibition” value does the source give for COc1ccc(C(=O)Cc2ccc(OC)c(OC)c2)cc1 here?
Answer: Its value is inactive: 8.25%.

Question: With O=C(N/N=C/C1C(c2ccccc2)C1(Cl)Cl)c1cccc(Br)c1 (stereo unspecified) as the compound, how does the “activity change, negative = inhibition” value read?
Answer: Its value is inactive: -22.3%.

Question: With COc1ccc(NC2=NCC(=O)N2Cc2cccs2)cc1 as the compound, how does the “activity change, negative = inhibition” value read?
Answer: Its value is inactive: -6.43%.

Question: With O=C(NNC(=S)Nc1ccccc1)NNC(=S)Nc1ccccc1 as the compound, how does the “activity change, negative = inhibition” value read?
Answer: The value was inactive: -18.4%.

Question: CC(=O)Nc1c2c3c(cccc3n(C)c1=O)C(=O)c1ccccc1-2 was tested. Which Potency did it give?
Answer: Its Potency is inconclusive: 100 µM [inhibitor, single point].

Question: CCc1c(C)sc(NC(=O)c2cc(-c3ccc(O)cc3)on2)c1C#N was tested. Which Potency did it give?
Answer: The Potency was inconclusive: 50.1 µM [inhibitor, partial curve, poor fit].

Question: How did the Potency turn out when Cc1cc(C)c2c(=N)c3ccccc3n(CCCCCCCCn3c4ccccc4c(=N)c4c(C)cc(C)nc43)c2n1 was run?
Answer: Its Potency is inconclusive: 50.1 µM [inhibitor, partial curve, poor fit].

Question: How did the “activity change, negative = inhibition” value turn out when CCOC(=O)C1(CCOc2ccccc2)CCN(Cc2cccc(-n3cccn3)c2)CC1 was run?
Answer: Its value is inactive: -23.8% [at 56.9 µM].

Question: How did the activity change, negative = inhibition turn out when COc1cc(/C=C(\C#N)C(=O)NCc2ccccc2)ccc1OCc1ccc(C(=O)O)cc1 was run?
Answer: The activity change, negative = inhibition was inactive: -10.1% [at 11.4 µM].

Question: O=C(Nc1ccc(-c2nc3ccccc3o2)cc1)C1CCCO1 (stereo unspecified) was tested. Which “activity change, negative = inhibition” value did it give?
Answer: The value was inactive: -17%.

Question: How did the Potency turn out when COc1ccccc1NC(=O)c1ccc(-c2ccccc2[N+](=O)[O-])o1 was run?
Answer: Its Potency is inconclusive: 17.8 µM [inhibitor, full curve, poor fit].

Question: How did the “activity change, negative = inhibition” value turn out when CCOc1ccccc1C(=O)N[C@H](C(=O)Nc1nc2c(s1)CCCC2)C(C)C was run?
Answer: Its value is inactive: -18.7%.

Question: Which Potency does the source give for CCCC(=O)NC(NC1CCS(=O)(=O)C1)C(Cl)(Cl)Cl (stereo unspecified) here?
Answer: Its Potency is inconclusive: 79.4 µM [inhibitor, partial curve, poor fit].

Question: For CC(=O)Nc1ccc(S(=O)(=O)NC(CSc2ccc(C(=O)O)cc2[N+](=O)[O-])C(=O)O)cc1 (stereo unspecified), which “activity change, negative = inhibition” value is on record?
Answer: The value was inactive: -9.41%.

Question: How did the “activity change, negative = inhibition” value turn out when Cc1ccc(C)c(Nc2nn3c(=O)c4ccc(C(=O)NCc5cccs5)cc4nc3s2)c1 was run?
Answer: Its value is inactive: -48.3%.

Question: How did the “activity change, negative = inhibition” value turn out when Cc1ccc(S(=O)(=O)/N=C(\N)Nc2nc(C)c3cc(C)ccc3n2)cc1 was run?
Answer: The value was inactive: 10.6%.

Question: CSc1ccc(C=NNc2ccc(S(=O)(=O)Nc3ccccc3C(=O)O)cc2[N+](=O)[O-])cc1 was tested. Which Potency did it give?
Answer: The Potency was inconclusive: 31.6 µM [inhibitor, full curve, poor fit].

Question: With O=C(OCC(=O)N1CCCC1=O)c1cc2ccccc2o1 as the compound, how does the Potency read?
Answer: The Potency was inconclusive: 79.4 µM [inhibitor, single point].

Question: How did the Potency turn out when CCc1ccccc1NC(=O)CCCN1C(=O)C2CC=CCC2C1=O (stereo unspecified) was run?
Answer: The Potency was inconclusive: 79.4 µM [inhibitor, single point].

Question: CC(=O)N1CCCN(Cc2nc(C3(c4ccc(C)cc4)CCCC3)no2)CC1 was tested. Which “activity change, negative = inhibition” value did it give?
Answer: The value was inactive: 6.12%.

Question: C[C@H](NC(=O)c1cc2c(cn1)[nH]c1ccccc12)C(=O)O was tested. Which Potency did it give?
Answer: The Potency was inconclusive: 56.2 µM [inhibitor, partial curve, poor fit].

Question: How did the Potency turn out when Cc1nc2ccccc2c(C)c1C(=O)c1ccccc1 was run?
Answer: Its Potency is inconclusive: 28.2 µM [inhibitor, full curve, poor fit].

Question: For COc1ccccc1CN1C(=O)c2ccccc2C1C(=O)NC1CCC(C)CC1 (stereo unspecified), which Potency is on record?
Answer: Its Potency is inconclusive: 79.4 µM [inhibitor, partial curve, poor fit].

Question: With Cc1ccc2oc(-c3cc(NC(=O)/C=C/c4ccco4)ccc3Cl)nc2c1 as the compound, how does the Potency read?
Answer: The Potency was inconclusive: 25.1 µM [inhibitor, full curve, poor fit].

Question: With COCC(O)CNc1ccccc1 (stereo unspecified) as the compound, how does the Potency read?
Answer: Its Potency is inconclusive: 50.1 µM [inhibitor, partial curve, poor fit].

Question: For O=C(C1CCN(Cc2cc(Cl)ccc2O)CC1)N1CCN(Cc2ccccc2)CC1, which “activity change, negative = inhibition” value is on record?
Answer: The value was inactive: 4.95%.

Question: How did the “activity change, negative = inhibition” value turn out when Cc1ccc(-c2nc3cc(C(C)C)ccc3o2)cc1NC(=O)c1cc([N+](=O)[O-])ccc1N1CCOCC1 was run?
Answer: Its value is inactive: -17.9%.

Question: With CCCCN1C(=O)C(=O)c2cc(Cl)ccc21 as the compound, how does the Potency read?
Answer: Its Potency is inconclusive: 79.4 µM [inhibitor, single point].

Question: S=c1[nH]nc2ccccn12 was tested. Which Potency did it give?
Answer: Its Potency is inconclusive: 17.8 µM [inhibitor, full curve, poor fit].

Question: Which “activity change, negative = inhibition” value does the source give for Clc1cccc(N2CCN(Cc3nnc(-c4ccccc4)o3)CC2)c1 here?
Answer: The value was inactive: 21.7%.

Question: Which Potency does the source give for CC#C[C@]1(O)CC[C@H]2C3CCC4=CC(=O)CCC4=C3[C@@H](c3ccc(N(C)C)cc3)C[C@@]21C (stereo partly specified) here?
Answer: Its Potency is inconclusive: 8.44 µM [inhibitor, partial curve, poor fit].

Question: How did the “activity change, negative = inhibition” value turn out when NS(=O)(=O)c1cccnc1Nc1ccc(Cl)c(Cl)c1 was run?
Answer: Its value is inactive: 14.2%.

Question: How did the “activity change, negative = inhibition” value turn out when O=[N+]([O-])c1cc(CN2CCN(c3ccccc3)CC2)c(O)c2ncccc12 was run?
Answer: The value was inactive: -1.61%.

Question: For O=C(CSc1ccc(-c2ccco2)nn1)Nc1ccccc1F, which Potency is on record?
Answer: The Potency was inconclusive: 100 µM [inhibitor, partial curve, poor fit].

Question: With CC1=C/C(=C/N(C)c2ccccc2)C(=O)S1 as the compound, how does the Potency read?
Answer: Its Potency is inconclusive: 56.2 µM [inhibitor, partial curve, poor fit].

Question: For COc1ccc2c(Cl)c(C(=O)N/N=C/c3ccncc3)sc2c1, which Potency is on record?
Answer: Its Potency is inconclusive: 17.8 µM [inhibitor, full curve, poor fit].

Question: With C[C@@]12C(=O)Nc3ccccc3C(=O)N1[C@H]1c3cc(Cl)ccc3OC[C@@H]1[C@@H]2c1ccccc1 as the compound, how does the “activity change, negative = inhibition” value read?
Answer: Its value is inactive: 5.15%.

Question: Which Potency does the source give for Cc1ccccc1NC(=S)NC(=O)/C=C/c1ccco1 here?
Answer: Its Potency is inconclusive: 89.1 µM [inhibitor, partial curve, poor fit].

Question: How did the “activity change, negative = inhibition” value turn out when O=C1Nc2ccc(Br)cc2C1=C1CCCCC1 was run?
Answer: Its value is inactive: -18.5%.

Question: CC(=O)N(CCC(c1ccccc1)c1ccco1)Cc1cccs1 (stereo unspecified) was tested. Which Potency did it give?
Answer: Its Potency is inconclusive: 89.1 µM [inhibitor, partial curve, poor fit].
